The labels stand for the following.
B1: fusion protein with scMvDN30 at the N-terminal, linker L45 and decoyMET^K842E at the C-terminal (other)
chain: DIVLTQSPASLAVSLGQRATISCKASQSVDYDGGSYMSWFQQRPGQPPKLLISAASNLESGIPARFSGSGSGTDFTLNIHPVEEEDVATYYCQQSYEDPLTFGAGTKVEIKRTVAAPSVFIFPPSDEQLKSGTASVVCLLNNFYPREAKVQWKVDNALQSGNSQESVTEQDSKDSTYSLSSTLTLSKADYEKHKVYACEVTHQGLSSPVTKSFNRGECGGSSGSGSGSTGTSSSGTGTSAGTTGTSASTSGSGSGGGGGSGGGGSAGGTATAGASSGSVQLQQPGTELVKPGASVKLSCKASGYTFTSYWIHWVKQRPGQGLEWIGEINPSSGRTNYNEKFKNKVTVTVDKSSTTAYMQLSNLTSEDSAVYYCASRGYWGQGTTLTVSSASTKGPSVFPLAPSSKSTSGGTAALGCLVKDYFPEPVTVSWNSGALTSGVHTFPAVLQSSGLYSLSSVVTVPSSSLGTQTYICNVNHKPSNTKVDKKVEPKSCDKTHTAEAAAKEAAAKEAAAKEAAAKAAAEAAAKEAAAKEAAAKEAAAKAECKEALAKSEMNVNMKYQLPNFTAETPIQNVILHEHHIFLGATNYIYVLNEEDLQKVAEYKTGPVLEHPDCFPCQDCSSKANLSGGVWKDNINMALVVDTYYDDQLISCGSVNRGTCQRHVFPHNHTADIQSEVHCIFSPQIEEPSQCPDCVVSALGAKVLSSVKDRFINFFVGNTINSSYFPDHPLHSISVRRLKETKDGFMFLTDQSYIDVLPEFRDSYPIKYVHAFESNNFIYFLTVQRETLDAQTFHTRIIRFCSINSGLHSYMEMPLECILTEKRKKRSTKKEVFNILQAAYVSKPGAQLARQIGASLNDDILFGVFAQSKPDSAEPMDRSAMCAFPIKYVNDFFNKIVNKNNVRCLQHFYGPNHEHCFNRTLLRNSSGCEARRDEYRTEFTTALQRVDLFMGQFSEVLLTSISTFIKGDLTIANLGTSEGRFMQVVVSRSGPSTPHVNFLLDSHPVSPEVIVEHTLNQNGYTLVITGKKITKIPLNGLGCRHFQSCSQCLSAPPFVQCGWCHDKCVRSEECLSGTWTQQICLPAIYKVFPNSAPLEGGTRLTICGWDFGFRRNNKFDLKKTRVLLGNESCTLTLSESTMNTLKCTVGPAMNKHFNMSIIISNGHGTTQYSTFSYVDPVITSISPKYGPMAGGTLLTLTGNYLNSGNSRHISIGGKTCTLKSVSNSILECYTPAQTISTEFAVKLKIDLANRETSIFSYREDPIVYEIHPTKSFISGGSTITGVGKNLNSVSVPRMVINVHEAGRNFTVACQHRSNSEIICCTTPSLQQLNLQLPLKTKAFFMLDGILSKYFDLIYVHNPVFEPFEKPVMISMGNENVLEIKGNDIDPEAVKGEVLKVGNKSCENIHLHSEAVLCTVPNDLLKLNSELNIEWKQAISSTVLGKVIVQPDQNFTASGAAWSHPQFEKGAAWSHPQFEKGAAWSHPQFEKGAAHHHHHH
B2: fusion protein with decoyMET^K842E at the N-terminal, linker L60 and scMvDN30 at the C-terminal (other)
chain: ECKEALAKSEMNVNMKYQLPNFTAETPIQNVILHEHHIFLGATNYIYVLNEEDLQKVAEYKTGPVLEHPDCFPCQDCSSKANLSGGVWKDNINMALVVDTYYDDQLISCGSVNRGTCQRHVFPHNHTADIQSEVHCIFSPQIEEPSQCPDCVVSALGAKVLSSVKDRFINFFVGNTINSSYFPDHPLHSISVRRLKETKDGFMFLTDQSYIDVLPEFRDSYPIKYVHAFESNNFIYFLTVQRETLDAQTFHTRIIRFCSINSGLHSYMEMPLECILTEKRKKRSTKKEVFNILQAAYVSKPGAQLARQIGASLNDDILFGVFAQSKPDSAEPMDRSAMCAFPIKYVNDFFNKIVNKNNVRCLQHFYGPNHEHCFNRTLLRNSSGCEARRDEYRTEFTTALQRVDLFMGQFSEVLLTSISTFIKGDLTIANLGTSEGRFMQVVVSRSGPSTPHVNFLLDSHPVSPEVIVEHTLNQNGYTLVITGKKITKIPLNGLGCRHFQSCSQCLSAPPFVQCGWCHDKCVRSEECLSGTWTQQICLPAIYKVFPNSAPLEGGTRLTICGWDFGFRRNNKFDLKKTRVLLGNESCTLTLSESTMNTLKCTVGPAMNKHFNMSIIISNGHGTTQYSTFSYVDPVITSISPKYGPMAGGTLLTLTGNYLNSGNSRHISIGGKTCTLKSVSNSILECYTPAQTISTEFAVKLKIDLANRETSIFSYREDPIVYEIHPTKSFISGGSTITGVGKNLNSVSVPRMVINVHEAGRNFTVACQHRSNSEIICCTTPSLQQLNLQLPLKTKAFFMLDGILSKYFDLIYVHNPVFEPFEKPVMISMGNENVLEIKGNDIDPEAVKGEVLKVGNKSCENIHLHSEAVLCTVPNDLLKLNSELNIEWKQAISSTVLGKVIVQPDQNFTGGSSGSGSGSTGTSSSGTGTSAGTTGTSASTSGSGSGGGGGSGGGGSAGGTATAGASSGSDIVLTQSPASLAVSLGQRATISCKASQSVDYDGGSYMSWFQQRPGQPPKLLISAASNLESGIPARFSGSGSGTDFTLNIHPVEEEDVATYYCQQSYEDPLTFGAGTKVEIKRTVAAPSVFIFPPSDEQLKSGTASVVCLLNNFYPREAKVQWKVDNALQSGNSQESVTEQDSKDSTYSLSSTLTLSKADYEKHKVYACEVTHQGLSSPVTKSFNRGECGGSSGSGSGSTGTSSSGTGTSAGTTGTSASTSGSGSGGGGGSGGGGSAGGTATAGASSGSVQLQQPGTELVKPGASVKLSCKASGYTFTSYWIHWVKQRPGQGLEWIGEINPSSGRTNYNEKFKNKVTVTVDKSSTTAYMQLSNLTSEDSAVYYCASRGYWGQGTTLTVSSASTKGPSVFPLAPSSKSTSGGTAALGCLVKDYFPEPVTVSWNSGALTSGVHTFPAVLQSSGLYSLSSVVTVPSSSLGTQTYICNVNHKPSNTKVDKKVEPKSCDKTHTTRGAAWSHPQFEKGAAWSHPQFEKGAAWSHPQFEKGAAHHHHHH
B3: fusion protein with decoyMET^K842E at the N-terminal, linker L45 and scMvDN30 at the C-terminal (other)
chain: ECKEALAKSEMNVNMKYQLPNFTAETPIQNVILHEHHIFLGATNYIYVLNEEDLQKVAEYKTGPVLEHPDCFPCQDCSSKANLSGGVWKDNINMALVVDTYYDDQLISCGSVNRGTCQRHVFPHNHTADIQSEVHCIFSPQIEEPSQCPDCVVSALGAKVLSSVKDRFINFFVGNTINSSYFPDHPLHSISVRRLKETKDGFMFLTDQSYIDVLPEFRDSYPIKYVHAFESNNFIYFLTVQRETLDAQTFHTRIIRFCSINSGLHSYMEMPLECILTEKRKKRSTKKEVFNILQAAYVSKPGAQLARQIGASLNDDILFGVFAQSKPDSAEPMDRSAMCAFPIKYVNDFFNKIVNKNNVRCLQHFYGPNHEHCFNRTLLRNSSGCEARRDEYRTEFTTALQRVDLFMGQFSEVLLTSISTFIKGDLTIANLGTSEGRFMQVVVSRSGPSTPHVNFLLDSHPVSPEVIVEHTLNQNGYTLVITGKKITKIPLNGLGCRHFQSCSQCLSAPPFVQCGWCHDKCVRSEECLSGTWTQQICLPAIYKVFPNSAPLEGGTRLTICGWDFGFRRNNKFDLKKTRVLLGNESCTLTLSESTMNTLKCTVGPAMNKHFNMSIIISNGHGTTQYSTFSYVDPVITSISPKYGPMAGGTLLTLTGNYLNSGNSRHISIGGKTCTLKSVSNSILECYTPAQTISTEFAVKLKIDLANRETSIFSYREDPIVYEIHPTKSFISGGSTITGVGKNLNSVSVPRMVINVHEAGRNFTVACQHRSNSEIICCTTPSLQQLNLQLPLKTKAFFMLDGILSKYFDLIYVHNPVFEPFEKPVMISMGNENVLEIKGNDIDPEAVKGEVLKVGNKSCENIHLHSEAVLCTVPNDLLKLNSELNIEWKQAISSTVLGKVIVQPDQNFTAEAAAKEAAAKEAAAKEAAAKAAAEAAAKEAAAKEAAAKEAAAKADIVLTQSPASLAVSLGQRATISCKASQSVDYDGGSYMSWFQQRPGQPPKLLISAASNLESGIPARFSGSGSGTDFTLNIHPVEEEDVATYYCQQSYEDPLTFGAGTKVEIKRTVAAPSVFIFPPSDEQLKSGTASVVCLLNNFYPREAKVQWKVDNALQSGNSQESVTEQDSKDSTYSLSSTLTLSKADYEKHKVYACEVTHQGLSSPVTKSFNRGECGGSSGSGSGSTGTSSSGTGTSAGTTGTSASTSGSGSGGGGGSGGGGSAGGTATAGASSGSVQLQQPGTELVKPGASVKLSCKASGYTFTSYWIHWVKQRPGQGLEWIGEINPSSGRTNYNEKFKNKVTVTVDKSSTTAYMQLSNLTSEDSAVYYCASRGYWGQGTTLTVSSASTKGPSVFPLAPSSKSTSGGTAALGCLVKDYFPEPVTVSWNSGALTSGVHTFPAVLQSSGLYSLSSVVTVPSSSLGTQTYICNVNHKPSNTKVDKKVEPKSCDKTHTTRGAAWSHPQFEKGAAWSHPQFEKGAAWSHPQFEKGAAHHHHHH
B4: single chain MvDN30 (anti-HGFR single-chain Fab fragment) (Fab)
chain: DIVLTQSPASLAVSLGQRATISCKASQSVDYDGGSYMSWFQQRPGQPPKLLISAASNLESGIPARFSGSGSGTDFTLNIHPVEEEDVATYYCQQSYEDPLTFGAGTKVEIKRTVAAPSVFIFPPSDEQLKSGTASVVCLLNNFYPREAKVQWKVDNALQSGNSQESVTEQDSKDSTYSLSSTLTLSKADYEKHKVYACEVTHQGLSSPVTKSFNRGECGGSSGSGSGSTGTSSSGTGTSAGTTGTSASTSGSGSGGGGGSGGGGSAGGTATAGASSGSQLQQPGTELVKPGASVKLSCKASGYTFTSYWIHWVKQRPGQGLEWIGEINPSSGRTNYNEKFKNKVTVTVDKSSTTAYMQLSNLTSEDSAVYYCASRGYWGQGTTLTVSSASTKGPSVFPLAPSSKSTSGGTAALGCLVKDYFPEPVTVSWNSGALTSGVHTFPAVLQSSGLYSLSSVVTVPSSSLGTQTYICNVNHKPSNTKVDKKVEPKSCDKTHTTGTRGAAWSHPQFEKGAAWSHPQFEKGAAWSHPQFEKGAAHHHHHH

Consider 4 molecules from patent US20210070868A1 (published 2021).

One assay deals with Hepatocyte Growth Factor (HGF) (UniProt P14210 32-728). In words: ELISA. (In general: An ELISA detects its analyte on a solid surface through an enzyme-linked reagent.)
UniProt P14210, sequence (P14210 32-728): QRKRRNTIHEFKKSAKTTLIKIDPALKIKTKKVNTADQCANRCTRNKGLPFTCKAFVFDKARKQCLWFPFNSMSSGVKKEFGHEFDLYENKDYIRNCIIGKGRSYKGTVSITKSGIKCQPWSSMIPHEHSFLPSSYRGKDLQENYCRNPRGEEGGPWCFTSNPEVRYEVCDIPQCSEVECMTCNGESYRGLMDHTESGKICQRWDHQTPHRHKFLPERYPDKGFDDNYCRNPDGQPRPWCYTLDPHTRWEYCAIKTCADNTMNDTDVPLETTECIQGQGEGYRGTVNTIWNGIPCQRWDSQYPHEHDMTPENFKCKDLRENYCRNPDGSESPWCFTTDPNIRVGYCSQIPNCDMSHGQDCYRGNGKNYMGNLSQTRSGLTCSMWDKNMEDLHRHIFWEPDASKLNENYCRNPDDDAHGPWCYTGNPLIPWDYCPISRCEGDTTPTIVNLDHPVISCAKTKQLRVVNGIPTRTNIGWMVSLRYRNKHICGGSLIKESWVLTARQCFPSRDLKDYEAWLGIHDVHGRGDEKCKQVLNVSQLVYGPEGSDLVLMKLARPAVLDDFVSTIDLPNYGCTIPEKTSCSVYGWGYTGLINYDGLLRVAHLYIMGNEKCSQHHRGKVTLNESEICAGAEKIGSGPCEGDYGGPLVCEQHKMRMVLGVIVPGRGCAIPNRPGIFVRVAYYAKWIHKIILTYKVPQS
With B1, the affinity, expressed as Kd, was 0.187 nM.

For B2, the affinity, expressed as Kd, was 0.174 nM.

Turning to B3, binding was put at a Kd of 0.148 nM.

The next assay deals with T1, wild-type decoyMET (extracellular portion of human HGFR/MET: SEMA, PSI, IPT-1 to IPT-4) (UniProt P08581 25-932).
T1 chain: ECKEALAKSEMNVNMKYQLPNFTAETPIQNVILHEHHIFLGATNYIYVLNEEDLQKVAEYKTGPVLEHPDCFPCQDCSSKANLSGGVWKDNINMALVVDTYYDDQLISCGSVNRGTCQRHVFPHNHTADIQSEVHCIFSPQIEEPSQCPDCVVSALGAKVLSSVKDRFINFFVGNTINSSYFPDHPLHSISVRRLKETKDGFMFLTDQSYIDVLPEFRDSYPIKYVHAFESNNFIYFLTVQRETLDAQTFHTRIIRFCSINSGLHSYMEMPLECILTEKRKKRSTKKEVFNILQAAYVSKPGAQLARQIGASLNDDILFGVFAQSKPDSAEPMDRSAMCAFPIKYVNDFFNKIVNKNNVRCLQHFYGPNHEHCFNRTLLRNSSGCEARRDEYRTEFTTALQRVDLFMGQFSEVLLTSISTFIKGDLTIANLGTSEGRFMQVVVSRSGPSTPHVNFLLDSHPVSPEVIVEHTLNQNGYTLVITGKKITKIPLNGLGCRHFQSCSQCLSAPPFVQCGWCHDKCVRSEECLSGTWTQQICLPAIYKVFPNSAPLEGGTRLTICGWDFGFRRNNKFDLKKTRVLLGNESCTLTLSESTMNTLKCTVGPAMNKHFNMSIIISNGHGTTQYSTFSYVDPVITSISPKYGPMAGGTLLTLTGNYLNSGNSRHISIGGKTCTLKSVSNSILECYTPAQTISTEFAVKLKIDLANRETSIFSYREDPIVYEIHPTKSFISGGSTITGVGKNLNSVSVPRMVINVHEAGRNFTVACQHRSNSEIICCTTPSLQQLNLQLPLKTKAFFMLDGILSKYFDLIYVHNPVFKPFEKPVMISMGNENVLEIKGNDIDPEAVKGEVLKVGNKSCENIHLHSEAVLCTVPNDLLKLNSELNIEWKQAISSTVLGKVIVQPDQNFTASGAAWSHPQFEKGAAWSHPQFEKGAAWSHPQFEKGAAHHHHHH
In words: ELISA.
Consider B1, for which binding was put at a Kd of 6.21 nM.

B4: the dissociation constant (Kd) (as a rule, the free concentration of one partner at which half of the binding sites on the other are occupied at equilibrium, for simple one-to-one binding) turned out to be 4.53 nM.

In the case of B2, binding was characterised by a dissociation constant (Kd) of 34.3 nM.

For the molecule B3, the Kd was determined as 29.4 nM.
